Measurements: the BET-seq Pho4 binding data (Le et al. 2018)
The list shows a part of the results. These are noisy estimates, calculated here from bound and input reads.

Biological target: T1, Pho4 (S. cerevisiae) (UniProt P07270)
T1 sequence: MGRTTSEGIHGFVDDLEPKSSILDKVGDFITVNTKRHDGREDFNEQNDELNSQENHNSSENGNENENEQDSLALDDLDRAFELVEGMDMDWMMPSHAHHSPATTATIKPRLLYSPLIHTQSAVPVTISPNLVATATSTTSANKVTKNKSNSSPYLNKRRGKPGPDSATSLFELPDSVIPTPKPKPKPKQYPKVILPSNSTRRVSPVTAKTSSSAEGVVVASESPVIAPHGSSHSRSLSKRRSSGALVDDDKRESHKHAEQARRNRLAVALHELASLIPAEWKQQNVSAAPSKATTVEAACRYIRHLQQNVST
Experiment: relative binding free energy (BET-seq); higher = weaker binding
Settings: reference: library average

Sequence | relative binding free energy
GGGATCACGTGCTTGT | 0.22 kcal/mol
TTAGTCACGTGATATT | 0.38 kcal/mol
ATCATCACGTGAAGGG | 0.23 kcal/mol
GGGGCCACGTGAGATG | 0.17 kcal/mol
AAGGTCACGTGGCATG | 0 kcal/mol
AGAGTCACGTGATAGT | 0.24 kcal/mol
GTTGGCACGTGGACGT | -0.11 kcal/mol
GTCGTCACGTGGTACG | 0.2 kcal/mol
AGTAGCACGTGTATTG | -0.14 kcal/mol
TTATGCACGTGTGATA | -0.04 kcal/mol
GGGTGCACGTGGGATT | -0.01 kcal/mol
TTGCGCACGTGGGATG | -0.17 kcal/mol
TTTTACACGTGTAGGG | 0.11 kcal/mol
CGTTTCACGTGAGTCG | 0.5 kcal/mol
GAGTTCACGTGGGCAG | 0.3 kcal/mol
AGTCGCACGTGGTTGC | -0.04 kcal/mol
TGAGTCACGTGTCGGT | 0 kcal/mol
ACGTTCACGTGAGGGG | 0.31 kcal/mol
TTATCCACGTGGGCAG | -0.05 kcal/mol
GGAATCACGTGGTTCT | 0.24 kcal/mol
AGAGGCACGTGGGGGT | -0.23 kcal/mol
TATGCCACGTGTATTG | -0.06 kcal/mol
TAGGACACGTGTACGG | 0.08 kcal/mol
GTGTTCACGTGTTTGG | 0.36 kcal/mol
CTGGACACGTGGGGTC | -0.02 kcal/mol
TAATGCACGTGTGGAC | 0.13 kcal/mol

Sequence | relative binding free energy
ATGAACACGTGAAGGT | 0.3 kcal/mol
AGGGACACGTGCGGAT | 0 kcal/mol
TTTATCACGTGCGAGG | 0.14 kcal/mol
AAATGCACGTGGAAGT | 0.1 kcal/mol
ATAGGCACGTGGAGGG | -0.1 kcal/mol
AGGTACACGTGGGCAA | 0.01 kcal/mol
TTGCGCACGTGGTGTA | -0.32 kcal/mol
TTTATCACGTGTATGC | 0.18 kcal/mol
AGTTCCACGTGTAGTG | -0.08 kcal/mol
AAGTGCACGTGATATT | 0.02 kcal/mol
ATTGACACGTGGGTAC | -0.15 kcal/mol
GATTACACGTGTTTTC | 0.4 kcal/mol
AAGGACACGTGAGCGT | 0.3 kcal/mol
CTGGGCACGTGCTTTT | -0.17 kcal/mol
GGTTGCACGTGTTCTT | 0.13 kcal/mol
GTCAGCACGTGTAATG | 0.14 kcal/mol
TTTCTCACGTGAGGGT | 0.23 kcal/mol
GTGTTCACGTGTATAT | 0.29 kcal/mol
GGTAGCACGTGGGGGT | -0.15 kcal/mol
TGCGACACGTGATTGG | 0.04 kcal/mol
ATATACACGTGGGGAT | -0.2 kcal/mol
ATCTGCACGTGTTGGG | 0.1 kcal/mol
GTGTACACGTGGAGGG | 0.01 kcal/mol
GTCGTCACGTGAATGT | 0.18 kcal/mol
GTTCACACGTGAAGTG | 0.21 kcal/mol
AGATTCACGTGCTGGG | 0.29 kcal/mol

Sequence | relative binding free energy
GATTGCACGTGTTTGA | 0.15 kcal/mol
ATGGTCACGTGAGAGT | 0.29 kcal/mol
GGACTCACGTGGTTTT | 0.23 kcal/mol
GATGTCACGTGGCGAG | 0.2 kcal/mol
GATTTCACGTGATGGG | 0.52 kcal/mol
AGAGGCACGTGAGTGG | 0 kcal/mol
TGGTCCACGTGGCTGG | -0.14 kcal/mol
TGATTCACGTGAAGGT | 0.4 kcal/mol
TGACACACGTGGTTTA | 0.04 kcal/mol
TGTTGCACGTGCCATG | -0.1 kcal/mol
CATGTCACGTGGGTGT | -0.24 kcal/mol
GCTTACACGTGGGTGG | 0.03 kcal/mol
GGGAACACGTGAGGCG | 0.27 kcal/mol
ACTGGCACGTGTCAGT | 0.1 kcal/mol
TGGAGCACGTGGGGGC | -0.15 kcal/mol
TAGTCCACGTGTCTGG | 0.03 kcal/mol
GTACGCACGTGTTTTG | -0.04 kcal/mol
TCATGCACGTGGCTGG | -0.14 kcal/mol
ACAGTCACGTGGAGGA | 0.1 kcal/mol
TAGGGCACGTGTGGAA | -0.02 kcal/mol
TAGTTCACGTGAATGT | 0.4 kcal/mol
TTTGGCACGTGAGTCG | 0.04 kcal/mol
TGTTACACGTGGGGTT | 0.02 kcal/mol
GCTGCCACGTGGGGAG | -0.2 kcal/mol
TGTGGCACGTGAGCAT | 0.09 kcal/mol
GATGTCACGTGGTTTG | 0.25 kcal/mol

Sequence | relative binding free energy
GAGTTCACGTGTATCG | 0.32 kcal/mol
GGGGTCACGTGAAAAT | 0.49 kcal/mol
ATTACCACGTGGGTTT | -0.15 kcal/mol
TGAGGCACGTGGGCGA | -0.36 kcal/mol
GCTGTCACGTGGTCTT | 0.08 kcal/mol
GGGTCCACGTGGTTTA | -0.14 kcal/mol
ACTGGCACGTGTGGTA | -0.02 kcal/mol
GGTTTCACGTGCTGGC | 0.39 kcal/mol
CAGGGCACGTGGGAAT | -0.11 kcal/mol
AACATCACGTGTAGGT | 0.15 kcal/mol
TGTATCACGTGTGACG | 0.34 kcal/mol
GAGGGCACGTGCCTGG | -0.1 kcal/mol
TTTTACACGTGTATTG | 0.18 kcal/mol
CTGTGCACGTGGCTTG | -0.18 kcal/mol
GTATACACGTGTTTTG | -0.03 kcal/mol
GGGAGCACGTGGCTTA | -0.11 kcal/mol
AGGTACACGTGAGTAT | 0.28 kcal/mol
ATGTTCACGTGCTCTT | 0.25 kcal/mol
AAGGTCACGTGTGTGA | 0.21 kcal/mol
GTGGTCACGTGTCGGG | 0.3 kcal/mol
GTGCGCACGTGAAGGA | 0.23 kcal/mol
TGGGTCACGTGGTCTG | 0.08 kcal/mol
AGAGTCACGTGGGACT | 0.15 kcal/mol
CGAATCACGTGATTGT | 0.34 kcal/mol
GGGGGCACGTGTGGAA | -0.05 kcal/mol
ATGGACACGTGTAATT | 0.16 kcal/mol

Sequence | relative binding free energy
TATTGCACGTGAGAAG | 0.06 kcal/mol
TTTTGCACGTGATCTT | 0.03 kcal/mol
TTGTTCACGTGTACAA | 0.29 kcal/mol
TTATACACGTGTTGAA | 0.03 kcal/mol
GTTAGCACGTGTTGAC | 0.05 kcal/mol
AGAGCCACGTGGTGGG | -0.14 kcal/mol
AGCTTCACGTGAGGTA | 0.44 kcal/mol
GTGTGCACGTGGGAGA | -0.07 kcal/mol
ATGGTCACGTGTGCTA | 0.05 kcal/mol
TTAGTCACGTGAGGGC | 0.29 kcal/mol
TATCTCACGTGAGTTA | 0.5 kcal/mol
GTGTGCACGTGCGTGA | -0.14 kcal/mol
TTGCACACGTGTGCGG | 0.04 kcal/mol
CGGTGCACGTGCGGTT | -0.01 kcal/mol
GGGAACACGTGTGAGG | 0.17 kcal/mol
GAAGGCACGTGAGCGG | 0.02 kcal/mol
TGAGGCACGTGGCAGA | -0.11 kcal/mol
TCTGTCACGTGGGCAT | -0.01 kcal/mol
ATATACACGTGGTGCT | -0.1 kcal/mol
TGTGACACGTGATGGG | 0.04 kcal/mol
TGTGGCACGTGATGAG | 0.03 kcal/mol
GTATGCACGTGTGTTG | 0.02 kcal/mol
TACATCACGTGGTATG | 0.02 kcal/mol
GGTTTCACGTGGTTCG | 0.41 kcal/mol
GGGGACACGTGCCGGT | -0.2 kcal/mol
TTTACCACGTGTTTGT | -0.1 kcal/mol

Sequence | relative binding free energy
TTATACACGTGGTAGC | -0.06 kcal/mol
TAATTCACGTGGCTTT | 0.32 kcal/mol
AGGGGCACGTGCACTG | -0.2 kcal/mol
TTTGCCACGTGGAGTG | -0.15 kcal/mol
ATAATCACGTGTACTT | 0.21 kcal/mol
ATATCCACGTGTTGGT | 0 kcal/mol
TGTGGCACGTGGGTCT | -0.18 kcal/mol
CTTTTCACGTGGAGGT | 0.18 kcal/mol
CGATTCACGTGTTAAT | 0.32 kcal/mol
ACTGTCACGTGTTCGT | 0.24 kcal/mol
TTATACACGTGCTGTT | 0.01 kcal/mol
TAAGTCACGTGGCGAG | -0.02 kcal/mol
AGGATCACGTGATTAG | 0.37 kcal/mol
TGCATCACGTGGTGGC | 0.07 kcal/mol
GTTTGCACGTGTTGTA | 0.1 kcal/mol
TGTGTCACGTGAACAG | 0.21 kcal/mol
GTGTCCACGTGAAGGG | 0.31 kcal/mol
CGGGACACGTGGGCTA | -0.01 kcal/mol
CGTAACACGTGTGTTA | -0.06 kcal/mol
TATGTCACGTGTTCGA | 0.05 kcal/mol
CTGTCCACGTGCTGGG | 0.06 kcal/mol
ATAAACACGTGAGTGG | 0.3 kcal/mol
CGTGCCACGTGGGTGG | -0.3 kcal/mol
CGGGTCACGTGTCGAG | 0.04 kcal/mol
GGGATCACGTGTGGAT | 0.2 kcal/mol
TTTCACACGTGGAGTG | 0.22 kcal/mol

Sequence | relative binding free energy
CGATTCACGTGGGGTG | 0.26 kcal/mol
TTTGTCACGTGTAGTA | 0.24 kcal/mol
CGTAGCACGTGGGTTT | -0.26 kcal/mol
TAGTGCACGTGCTCTT | -0.05 kcal/mol
ATACTCACGTGATGGG | 0.13 kcal/mol
GGGAGCACGTGTATAA | -0.04 kcal/mol
GGGGCCACGTGTATGG | -0.05 kcal/mol
TGGGACACGTGAAGGA | 0.3 kcal/mol
AGGTTCACGTGAGTGA | 0.31 kcal/mol
GCGTGCACGTGTTTAG | -0.02 kcal/mol
GGTATCACGTGCATGA | 0.24 kcal/mol
GTTTACACGTGGCGAG | 0.03 kcal/mol
CGGAGCACGTGCGGGT | -0.21 kcal/mol
GTGCACACGTGAGAGT | 0.51 kcal/mol
ATGAACACGTGATTGT | 0.15 kcal/mol
ATCGTCACGTGTTCGG | 0.11 kcal/mol
TGTGCCACGTGCTGTT | -0.24 kcal/mol
TTTGCCACGTGGATTT | 0.03 kcal/mol
GAGTTCACGTGGGAAA | 0.31 kcal/mol
TTGTGCACGTGGACCG | -0.03 kcal/mol
GTGTTCACGTGTGCCG | 0.19 kcal/mol
AGGGGCACGTGACGAT | 0.05 kcal/mol
TATTTCACGTGGAGGG | 0.28 kcal/mol
GTGCGCACGTGAAGAG | 0.33 kcal/mol
GGAGTCACGTGTTGAG | 0.18 kcal/mol
TAATTCACGTGGGAAA | 0.3 kcal/mol

Sequence | relative binding free energy
AAGCGCACGTGATGGT | 0.16 kcal/mol
CGTGACACGTGATAGG | 0 kcal/mol
AGTATCACGTGTCTTG | 0.14 kcal/mol
ATATACACGTGTCTTG | 0 kcal/mol
AGTAGCACGTGGGGGA | -0.18 kcal/mol
AAAGCCACGTGTAGGG | -0.11 kcal/mol
TCGTGCACGTGTCGAT | 0.09 kcal/mol
GGCTTCACGTGGTGGA | 0.22 kcal/mol
TCGTTCACGTGTTTTC | 0.27 kcal/mol
CGGTTCACGTGTGATG | 0.29 kcal/mol
ACGTTCACGTGTATAT | 0.2 kcal/mol
GAATGCACGTGTTTGG | 0.23 kcal/mol
CAAAACACGTGAGGGT | 0.31 kcal/mol
CGTGGCACGTGGGATT | -0.17 kcal/mol
AGTTTCACGTGAAGGC | 0.36 kcal/mol
CATTTCACGTGTCGTG | 0.29 kcal/mol
GCGTGCACGTGGTCTT | -0.05 kcal/mol
TATTGCACGTGTGAAA | -0.01 kcal/mol
GTTTGCACGTGTAACG | 0.26 kcal/mol
CTGGGCACGTGCGTTG | -0.09 kcal/mol
TGAGCCACGTGTTTGT | -0.14 kcal/mol
GGTAACACGTGTGGCT | 0.07 kcal/mol
TTTTGCACGTGGATCA | 0.04 kcal/mol
GAGGGCACGTGAGTGA | 0.25 kcal/mol
GGTTACACGTGTGTTG | 0.12 kcal/mol
GGGAGCACGTGGATGT | -0.01 kcal/mol

Sequence | relative binding free energy
GTTTACACGTGGTTGC | 0.18 kcal/mol
TGTGTCACGTGTCTCG | 0.02 kcal/mol
AGAGACACGTGGGGGT | -0.18 kcal/mol
GGTGTCACGTGGAGTT | 0.18 kcal/mol
ATGCTCACGTGGATGG | 0.15 kcal/mol
TTTTACACGTGGAAAG | 0.08 kcal/mol
TGAGACACGTGTTTGT | 0.07 kcal/mol
TTGAACACGTGTACGT | 0.15 kcal/mol
GATTACACGTGATTGA | 0.27 kcal/mol
AGCGTCACGTGGATTG | 0.03 kcal/mol
CGTAGCACGTGTTTAT | -0.16 kcal/mol
AGCATCACGTGATTTG | 0.35 kcal/mol
TTTGGCACGTGGCTCG | -0.07 kcal/mol
GTTTGCACGTGTGGGC | 0.18 kcal/mol
GGCAACACGTGAGGTA | 0.45 kcal/mol
AAGTACACGTGTGGGG | 0.18 kcal/mol
GCTTGCACGTGATGGT | 0.13 kcal/mol
TTGAACACGTGTGGTT | 0.04 kcal/mol
TCTTTCACGTGTATAT | 0.18 kcal/mol
TGGTTCACGTGACAAG | 0.26 kcal/mol
CATGTCACGTGGTTCG | 0.01 kcal/mol
CGGGACACGTGCGTGT | -0.12 kcal/mol
